This is an account of results in patent publication US20220023420A1 (PRECIGEN, published 2022).

The target of assay [1] is T1, Anti-PD-1 (VH6-VL5) IgG4-ADA2 (UniProt Q9NZK5 30-511).
T1 construct: not shown: IgG4 constant region
Briefly: SPR (Biacore 3000), recombinant PD-1 Fc immobilized on CM5, fusion protein injected. As to the method: (§1) Surface plasma resonance (SPR) analysis was performed using Biacore3000, CM5 chip, an amine-coupling kit, 10×HBS-P running buffer and Glycine for. […] Dissociation was allowed to proceed followed by regeneration of the chip surface.
A general note: Surface plasmon resonance follows binding to a sensor surface in real time, without labels.

Assay [2] addresses T2, Anti-PD-1 (VH7-VL6) IgG1-ADA2 (UniProt Q9NZK5 30-511).
T2 construct: IgG1 format; not shown: IgG1 constant region
The description is as above. As to the method: as §1

Assay [3] has as its target T3, Anti-PD-1 (VH6-VL5) IgG1-ADA2 (UniProt Q9NZK5 30-511).
T3 construct: IgG1 format; also called anti-PD-1 (VH6/VL5) hIgG1-ADA2; not shown: IgG1 constant region
The assay is described as above. As to the method:
as §1

The target in assay [4] is Anti-PD-1 (VH6-VL5) scFv-ADA2 (Homo sapiens (Human), UniProt Q9NZK5 30-511). Described as above. How it is done: as §1
In another assay the target is TGF-β1 (UniProt P01137 part only). Briefly: cell-based or functional assay.

In general, Kd refers to the free concentration of one partner at which half of the binding sites on the other are occupied at equilibrium, for simple one-to-one binding.

Sequence of TGF-β1 (P01137 279-390 limits assumed): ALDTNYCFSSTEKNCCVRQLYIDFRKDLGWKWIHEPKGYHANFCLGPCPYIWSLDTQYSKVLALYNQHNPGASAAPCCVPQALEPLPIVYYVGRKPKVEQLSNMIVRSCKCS

B1: PD-1 Fc fusion protein (Fc fusion)
chain: not shown
notes: also called PD-1-Fc antigen; PD-1 fused to human Fc region; not shown: human Fc region
Consider B1, for which the Kd in assay [1] turned out to be 0.0616 pM; in assay [2], 0.509 pM; in assay [3], 0.309 pM; in assay [4], 3.46 nM.

B2: Anti-PD-1 (VL6-VH7).IgG4(S108P). TGFbRII (other)
heavy: QVQLVQSGVEVKKPGASVKVSCKASGYTFTNYYMYWVRQAPGQGLEWMGGINPSNGGTNFNEKFKNRVTLTTDSSTTTAYMELKSLQFDDTAVYYCARRDYRFDMGFDYWGQGTTVTVSSASTKGPSVFPLAPCSRSTSESTAALGCLVKDYFPEPVTVSWNSGALTSGVHTFPAVLQSSGLYSLSSVVTVPSSSLGTKTYTCNVDHKPSNTKVDKRV[human IgG4 Fc with S228P L445P (EU numbers) not printed]GGGGSGGGGSIPPHVQKSVNNDMIVTDNNGAVKFPQLCKFCDVRFSTCDNQKSCMSNCSITSICEKPQEVCVAVWRKNDENITLETVCHDPKLPYHDFILEDAASPKCIMKEKKKPGETFFMCSCSSDECNDNIIFSEEYNTSNPD
light: EIVLTQSPATLSLSPGERATLSCRASKGVSTSGYSYLHWYQQKPGQAPRLLIYLASYLESGVPARFSGSGSGTDFTLTISSLEPEDFAVYYCQHSRDLPLTFGGGTKVEIKRTVAAPSVFIFPPSDEQLKSGTASVVCLLNNFYPREAKVQWKVDNALQSGNSQESVTEQDSKDSTYSLSSTLTLSKADYEKHKVYACEVTHQGLSSPVTKSFNRGEC
Turning to B2, the “IC50-inhibition of TGF-β1 induced reporter gene activity (HEK-Blue TGF-β cells, SEAP)” value in the assay with TGF-β1 stood at 9.3 pM.
